Laboratory results: the BET-seq Pho4 binding data (Le et al. 2018)
This is one part of the list. These are noisy estimates, calculated here from bound and input reads.

biological target: T1, Pho4 (S. cerevisiae) (UniProt P07270); test: relative binding free energy (BET-seq); higher = weaker binding; details: reference: library average
T1 sequence: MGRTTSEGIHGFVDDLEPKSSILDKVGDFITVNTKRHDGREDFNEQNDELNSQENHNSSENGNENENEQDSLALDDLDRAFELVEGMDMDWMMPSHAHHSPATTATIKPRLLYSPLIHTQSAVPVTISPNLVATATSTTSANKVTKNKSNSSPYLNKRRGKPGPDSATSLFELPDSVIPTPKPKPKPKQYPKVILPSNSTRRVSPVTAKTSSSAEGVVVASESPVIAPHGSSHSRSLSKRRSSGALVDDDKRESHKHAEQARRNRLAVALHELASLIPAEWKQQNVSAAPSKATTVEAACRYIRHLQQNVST

| Sequence | relative binding free energy [kJ/mol] |
| --- | --- |
| AGTTACACGTGGGATA | 0.544 |
| AAGTTCACGTGTTGTT | 1.51 |
| TGTTTCACGTGCTCAG | 0.753 |
| AAGGTCACGTGCGTGT | -0.586 |
| GATTGCACGTGTGAAT | 0.879 |
| TGTTTCACGTGAGTGC | 1.76 |
| TTAATCACGTGATGTT | 0.753 |
| TTTATCACGTGGGTTA | -0.167 |
| TGGGTCACGTGATTTT | 1.3 |
| AGTGACACGTGAAGGA | 0.92 |
| TTGTACACGTGTGGGC | 0.502 |
| TATCTCACGTGGGGTT | 0.586 |
| TGAAGCACGTGCTGGT | -0.837 |
| ACGGGCACGTGTTGAG | -0.46 |
| GTGGTCACGTGTCGGA | 1.3 |
| AGAGGCACGTGGTTGT | -0.711 |
| GTCAGCACGTGTGGGA | 0.126 |
| TTAGGCACGTGTATAA | -0.418 |
| GGTTTCACGTGTACTT | 1.17 |
| GTGGTCACGTGGTTAT | 0.628 |
| GTGCGCACGTGTACTG | 0.0837 |
| TTGAACACGTGGGTTG | 0.335 |
| TGCGACACGTGGGTTG | -0.628 |

| Sequence | relative binding free energy [kJ/mol] |
| --- | --- |
| TAAATCACGTGGCAGG | 0.126 |
| TGTTGCACGTGGTACC | -0.251 |
| ATTATCACGTGAAGTA | 1.26 |
| TTAATCACGTGATAAT | 1 |
| TTTTACACGTGAATTA | 1.3 |
| TTTTGCACGTGCATCG | 0.0837 |
| TGGTGCACGTGCGGCA | -0.126 |
| GCTGTCACGTGTTATG | 0.209 |
| ATCTTCACGTGGGGGC | 0.209 |
| GTATTCACGTGTCTTG | 1.3 |
| AAGGTCACGTGATAGG | 1.26 |
| CTTAGCACGTGTGAGT | -0.251 |
| CGGGCCACGTGCTGGG | -0.586 |
| ACATGCACGTGGTTGG | -1.05 |
| TAGCACACGTGAGGTG | 1.09 |
| GTTTGCACGTGGAAGT | 0.251 |
| AAATACACGTGGTCGG | 0.669 |
| CTTTTCACGTGGGGCA | 0.544 |
| GATGTCACGTGGTAGC | 0.879 |
| TTTTCCACGTGTTTGC | 0.167 |
| AAGGCCACGTGTGTAG | 0.251 |
| GGCGGCACGTGGGGTG | -0.753 |
| TTATGCACGTGATCAT | 0 |

| Sequence | relative binding free energy [kJ/mol] |
| --- | --- |
| ATAAACACGTGGGTGT | -0.711 |
| TGTGACACGTGGAAGT | -0.167 |
| AATAGCACGTGGTTGC | -0.586 |
| GTGCCCACGTGGTGTA | -0.377 |
| TTGAACACGTGGGTCT | -0.251 |
| TGGGTCACGTGTAATT | 1.51 |
| TGCTGCACGTGCGTAG | -0.251 |
| CGTTTCACGTGGAGCA | 1.67 |
| TGGATCACGTGGGAGC | 0.167 |
| GGTACCACGTGTTGGT | 0.209 |
| AAAAGCACGTGTGAGT | -0.0418 |
| TGTGCCACGTGGTATT | -0.586 |
| CAAAGCACGTGTGTAG | 0.293 |
| TGATACACGTGTTCGG | -0.418 |
| TTTGTCACGTGTATAT | 0.711 |
| TTCCTCACGTGGGTTA | 0.251 |
| ATAGTCACGTGTGTGA | 0.0418 |
| ATATTCACGTGGTCAG | 0.418 |
| TTAGGCACGTGCGTCG | -0.711 |
| CGGCGCACGTGTGAGT | -0.377 |
| TCGGGCACGTGTGTAG | 0.209 |
| GGTGTCACGTGTTCAA | 0.502 |
| GGGACCACGTGTGGAG | 0.377 |

| Sequence | relative binding free energy [kJ/mol] |
| --- | --- |
| TGGAGCACGTGTTAAA | -0.0418 |
| ATGAGCACGTGAGGCG | 0.502 |
| AACGGCACGTGAGTGG | -0.0418 |
| GTCGGCACGTGGTTCG | 0.377 |
| TAGGACACGTGATTGC | 1 |
| CATATCACGTGGGTTG | 0.0837 |
| ATGCGCACGTGGTATG | -0.711 |
| TCTTTCACGTGGGTAT | 0.879 |
| GTGTGCACGTGTAAAG | 0.335 |
| GTCAGCACGTGGGGCG | -0.377 |
| TATAACACGTGCGGGT | -0.46 |
| TGCGGCACGTGCTTTG | -0.335 |
| CTGGTCACGTGGTTAG | 0.586 |
| ATCGGCACGTGCAGGT | -0.209 |
| ATAAGCACGTGGGGCT | -1.09 |
| CGTTGCACGTGCTTGA | 0.251 |
| TGTTGCACGTGGCTGG | -0.293 |
| TGGGTCACGTGGCAAT | 0 |
| TTGAGCACGTGTTAAG | 0 |
| TGTTTCACGTGCACGG | 0.879 |
| AGTTACACGTGCTTTA | 0.377 |
| TTTCTCACGTGGGGGT | 0.377 |
| GATGGCACGTGTGCTT | 0.335 |

| Sequence | relative binding free energy [kJ/mol] |
| --- | --- |
| AGGGTCACGTGTTCAG | 0.502 |
| GGGGCCACGTGTATTG | -0.126 |
| CATTGCACGTGGCGGG | -0.209 |
| ACGGGCACGTGCGGAT | -0.418 |
| CTTTGCACGTGAGCGT | 0.377 |
| ATCCTCACGTGTTGGG | 0.92 |
| GTGGTCACGTGAGGTA | 1.55 |
| CGTAGCACGTGTATGT | -1.09 |
| TGTTACACGTGTGTTC | 0.879 |
| GCGTGCACGTGTATTG | 0.0418 |
| TATATCACGTGTCTAT | 0.795 |
| ATTGGCACGTGCCGGG | -0.795 |
| TAAGTCACGTGTGCGC | 0.628 |
| TAATTCACGTGTTACG | 1.38 |
| TGGGGCACGTGCGTGA | -0.586 |
| GATGACACGTGGTCGT | 0.0837 |
| TCGGCCACGTGGGTTT | -0.628 |
| TTGTTCACGTGCGTCG | 0.753 |
| GTAAGCACGTGTATTT | -0.293 |
| ACGGACACGTGTAGGG | 0.586 |
| CTGGGCACGTGTTTGA | -0.586 |
| TGTTACACGTGAGTGA | 0.837 |
| TGGTTCACGTGCAATT | 1.3 |
